Publication PMC10792917
These are yes or no findings as the source states them, for the method shown. Binding seen in cells or lysates may run through a third protein. Some entries that bind do so weakly or less than the wild type. Each block holds one molecule with its values, some of them ahead of it.

By UniProt entry, the sequences of proteins in these tests, tags left out. Residues count along the entry.
UniProt P13726, residues 33-295: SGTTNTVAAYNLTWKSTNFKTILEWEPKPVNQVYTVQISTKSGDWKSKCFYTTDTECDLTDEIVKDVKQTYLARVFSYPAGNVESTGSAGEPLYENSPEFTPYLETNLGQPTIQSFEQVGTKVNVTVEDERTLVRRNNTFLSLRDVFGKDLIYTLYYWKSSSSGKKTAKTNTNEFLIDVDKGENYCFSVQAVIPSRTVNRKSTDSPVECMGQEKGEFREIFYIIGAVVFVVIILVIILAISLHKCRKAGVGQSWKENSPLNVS
UniProt Q96QZ7: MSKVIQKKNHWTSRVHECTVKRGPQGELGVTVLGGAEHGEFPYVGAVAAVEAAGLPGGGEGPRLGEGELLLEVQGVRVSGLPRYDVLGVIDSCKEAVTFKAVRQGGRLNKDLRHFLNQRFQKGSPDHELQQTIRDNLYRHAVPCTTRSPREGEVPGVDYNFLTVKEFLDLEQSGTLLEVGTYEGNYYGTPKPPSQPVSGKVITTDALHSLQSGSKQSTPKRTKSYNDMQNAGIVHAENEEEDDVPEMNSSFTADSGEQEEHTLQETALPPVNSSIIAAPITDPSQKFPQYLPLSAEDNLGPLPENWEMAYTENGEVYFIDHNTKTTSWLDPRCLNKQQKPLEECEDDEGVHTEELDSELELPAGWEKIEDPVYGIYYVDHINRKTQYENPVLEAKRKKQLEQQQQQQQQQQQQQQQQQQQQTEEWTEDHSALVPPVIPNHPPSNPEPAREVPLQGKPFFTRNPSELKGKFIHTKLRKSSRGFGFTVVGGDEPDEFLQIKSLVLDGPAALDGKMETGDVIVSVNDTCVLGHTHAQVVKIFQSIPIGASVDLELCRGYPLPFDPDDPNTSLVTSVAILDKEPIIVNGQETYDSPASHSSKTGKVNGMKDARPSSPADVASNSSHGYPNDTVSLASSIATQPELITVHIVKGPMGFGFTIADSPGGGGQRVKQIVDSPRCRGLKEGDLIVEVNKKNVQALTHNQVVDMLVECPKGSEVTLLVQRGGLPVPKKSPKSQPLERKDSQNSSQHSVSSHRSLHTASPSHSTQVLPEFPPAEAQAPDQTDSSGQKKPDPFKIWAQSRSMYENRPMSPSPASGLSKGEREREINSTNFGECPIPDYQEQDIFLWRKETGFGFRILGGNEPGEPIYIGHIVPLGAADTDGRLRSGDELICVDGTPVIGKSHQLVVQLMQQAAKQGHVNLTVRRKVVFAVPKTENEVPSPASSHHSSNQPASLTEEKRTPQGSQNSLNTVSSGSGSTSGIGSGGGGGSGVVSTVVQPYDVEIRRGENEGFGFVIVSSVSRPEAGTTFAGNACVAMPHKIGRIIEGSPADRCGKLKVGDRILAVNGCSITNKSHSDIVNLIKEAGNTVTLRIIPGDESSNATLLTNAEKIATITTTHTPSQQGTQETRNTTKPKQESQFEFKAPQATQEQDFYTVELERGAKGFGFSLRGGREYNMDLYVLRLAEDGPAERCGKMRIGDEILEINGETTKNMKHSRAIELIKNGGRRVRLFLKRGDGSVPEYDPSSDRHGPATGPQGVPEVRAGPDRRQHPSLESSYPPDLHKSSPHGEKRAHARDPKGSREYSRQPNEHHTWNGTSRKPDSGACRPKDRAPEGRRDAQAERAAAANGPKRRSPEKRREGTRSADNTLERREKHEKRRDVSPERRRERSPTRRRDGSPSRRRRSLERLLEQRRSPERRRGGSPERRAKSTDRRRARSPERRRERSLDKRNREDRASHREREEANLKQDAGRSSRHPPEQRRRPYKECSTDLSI
UniProt Q9H6Y5: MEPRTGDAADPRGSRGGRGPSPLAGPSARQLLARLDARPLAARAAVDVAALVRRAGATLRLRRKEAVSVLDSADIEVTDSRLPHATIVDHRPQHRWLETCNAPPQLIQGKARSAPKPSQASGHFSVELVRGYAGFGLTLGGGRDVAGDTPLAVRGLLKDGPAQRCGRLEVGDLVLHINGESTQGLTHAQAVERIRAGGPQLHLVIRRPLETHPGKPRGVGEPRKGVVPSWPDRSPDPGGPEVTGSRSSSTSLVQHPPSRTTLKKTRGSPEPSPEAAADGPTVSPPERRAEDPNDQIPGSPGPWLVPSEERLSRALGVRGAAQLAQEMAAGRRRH

Experiments:
[1] = target: Tissue factor (human (endogenous in MDA-MB-231)) (UniProt P13726); assay: co-IP; endogenous proteins from MDA-MB-231 lysate (PhosphoSafe reagent), antibody overnight at 4 C, protein A-magnetic beads, five washes with PBST, western blot; IP with anti-TF (HTF-1) or anti-MAGI1 (H-70), also studies with anti-MAGI2, anti-MAGI3, anti-MAGIX (D-18), anti-Rhophilin-1 (I-19); resting cells and cells treated with PAR2-AP 20 uM 20 min (33% less MAGI1 with TF; 19% less TF with MAGI1)
[2] = target: Tissue factor (human (endogenous in MDA-MB-231)) (UniProt P13726); assay: proximity ligation; Duolink PLA in fixed, permeabilised MDA-MB-231 cells; mouse anti-TF (HTF1) with rabbit anti-MAGI1 (H-70), anti-MAGI2 or anti-MAGI3; resting cells and cells treated with PAR2-AP 20 uM up to 40 min (26% reduction of TF-MAGI1 proximity at 20 min; change not significant for MAGI2 and MAGI3)
[3] = target: T1, Scrambled peptide (biotin-…); assay: pull-down; plate pull-down: biotinylated TF peptides (5 uM in PBS) bound to NeutrAvidin-coated 96-well plate; MDA-MB-231 lysate (from 2 x 10^5 cells) 1 h at room temperature; bound MAGI1 (H-70) or MAGI3 (46) detected with antibody and TMB at 450 nm; lysates of non-activated cells, and of PAR2-AP-activated cells up to 30 min (39% less MAGI1 on the non-phosphorylated peptide at about 20 min); only the target purified
T1 sequence (peptide, biotin on the N-terminus): SWGNVSKLSAPRQGVNKE

[4] = target: Membrane-associated guanylate kinase with inverted configuration 1 (human (endogenous in MDA-MB-231)) (UniProt Q96QZ7); assay: co-IP; endogenous proteins from MDA-MB-231 lysate (PhosphoSafe reagent), antibody overnight at 4 C, protein A-magnetic beads, five washes with PBST, western blot; IP with anti-TF (HTF-1) or anti-MAGI1 (H-70), also studies with anti-MAGI2, anti-MAGI3, anti-MAGIX (D-18), anti-Rhophilin-1 (I-19); resting cells and cells treated with PAR2-AP 20 uM 20 min (33% less MAGI1 with TF; 19% less TF with MAGI1)

Molecule: Tissue factor (from UniProt P13726 33-295)
binding [4]: binds

B1: Rhophilin-1 (protein, UniProt Q8TCX5 1-670)
chain: MILEERPDGAGAGEESPRLQGCDSLTQIQCGQLQSRRAQIHQQIDKELQMRTGAENLYRATSNNRVRETVALELSYVNSNLQLLKEELEELSGGVDPGRHGSEAVTVPMIPLGLKETKELDWSTPLKELISVHFGEDGASYEAEIRELEALRQAMRTPSRNESGLELLTAYYNQLCFLDARFLTPARSLGLFFHWYDSLTGVPAQQRALAFEKGSVLFNIGALHTQIGARQDRSCTEGARRAMEAFQRAAGAFSLLRENFSHAPSPDMSAASLCALEQLMMAQAQECVFEGLSPPASMAPQDCLAQLRLAQEAAQVAAEYRLVHRTMAQPPVHDYVPVSWTALVHVKAEYFRSLAHYHVAMALCDGSPATEGELPTHEQVFLQPPTSSKPRGPVLPQELEERRQLGKAHLKRAILGQEEALRLHALCRVLREVDLLRAVISQTLQRSLAKYAELDREDDFCEAAEAPDIQPKTHQKPEARMPRLSQGKGPDIFHRLGPLSVFSAKNRWRLVGPVHLTRGEGGFGLTLRGDSPVLIAAVIPGSQAAAAGLKEGDYIVSVNGQPCRWWRHAEVVTELKAAGEAGASLQVVSLLPSSRLPSLGDRRPVLLGPRGLLRSQREHGCKTPASTWASPRPLLNWSRKAQQGKTGGCPQPCAPVKPAPPSSLKHPGWP
binding [1]: no binding

Further lines, with some results ahead:

binding [1]: no binding
Molecule: MAGIX (from UniProt Q9H6Y5 1-334)

binding [2]: binds
binding [1]: binds
Molecule: Membrane-associated guanylate kinase with inverted configuration 1 (from UniProt Q96QZ7 1-1491)
binding [3]: no binding (tested: peptide coated at 5 µM)
